These results are taken from a collection of fitness landscapes (doi:10.1126/science.1257360).

B1: PhoQ; a variant is named by its letters at X, in order, P23837 (parent)
chain: MKKLLRLFFPLSLRVRFLLATAAVVLVLSLAYGMVALIGYSVSFDKTTFRLLRGESNLFYTLAKWENNKLHVELPENIDKQSPTMTLIYDENGQLLWAQRDVPWLMKMIQPDWLKSNGFHEIEADVNDTSLLLSGDHSIQQQLQEVREDDDDAEMTHSVAVNVYPATSRMPKLTIVVVDTIPVELKSSYMVWSWFIYVLSANLLLVIPLLWVAAWWSLRPIEALAKEVRELEEHNRELLNPATTRELTSLVRNLNRLLKSERERYDKYRTTLTDLTHSLKTPLXXLQXXLRSLRSEKMSVSDAEPVMLEQISRISQQIGYYLHRASMRGGTLLSRELHPVAPLLDNLTSALNKVYQRKGVNISLDISPEISFVGEQNDFVEVMGNVLDNACKYCLEFVEISARQTDEHLYIVVEDDGPGIPLSKREVIFDRGQRVDTLRPGQGVGLAVAREITEQYEGKIVAGESMLGGARMEVIFGRQHSAPKDE

Some of the results follow.

Variants of B1 are the subject of this assay. The experiment in a line: enrichment ratio after two sorts for PhoP signalling (ratio (wild type AVST 3.29)); higher = more functional. Particulars: with PhoP (E. coli).
For the variant EQPM, the enrichment ratio was ≤ 0.25.

On to AFGW, for which the enrichment ratio was ≤ 0.25. The figure for WYGE is ≤ 0.25; for WPSA it is ≤ 0.25. For AMTI, the enrichment ratio was 11.6. On to GGSY, for which the enrichment ratio was ≤ 0.25. The figure for PSPW is ≤ 0.25; for YATE it is ≤ 0.25. The figure for PFCL is ≤ 0.25; for QEQL it is ≤ 0.25. In the case of IDWP, the enrichment ratio is ≤ 0.25.

As for HPQI, the enrichment ratio is ≤ 0.25. The same measure for DFTR: ≤ 0.25. For the variant VQAP, the enrichment ratio is ≤ 0.25. Take YKSY: the enrichment ratio was ≤ 0.25. In the case of DKHW, the enrichment ratio was ≤ 0.25.

On to GCGL, for which the enrichment ratio was ≤ 0.25. For the variant SLAD, the enrichment ratio was ≤ 0.25.

As to THSG, the enrichment ratio was 8.93. The figure for YDQN is ≤ 0.25; for TGFE it is ≤ 0.25; for VVCH it is ≤ 0.25. The same measure for DMRR: ≤ 0.25. The figure for PMHE is ≤ 0.25; for AEIT it is 2.48; for DMMK it is ≤ 0.25. With ESSR, the enrichment ratio is ≤ 0.25. For FHTL, the enrichment ratio is ≤ 0.25. Take MVMI: the enrichment ratio was ≤ 0.25. The same measure for PNAT: ≤ 0.25; for DQTL: ≤ 0.25; for HPKV: ≤ 0.25. The same measure for FQDH: ≤ 0.25. The same measure for TMQF: 16.1. Turning to VILR, the enrichment ratio was ≤ 0.25. The figure for IDWQ is ≤ 0.25; for MTRE it is ≤ 0.25; for GMWC it is ≤ 0.25. The figure for DNWM is ≤ 0.25. The figure for MRYM is ≤ 0.25; for MRKC it is ≤ 0.25. For VKGN, the enrichment ratio is ≤ 0.25. For QTFT, the enrichment ratio was found to be 6.63. The same measure for YMYH: ≤ 0.25; for CSCY: ≤ 0.25.

Consider KDCY, for which the enrichment ratio is ≤ 0.25. The figure for VYKN is ≤ 0.25; for RHCT it is ≤ 0.25. The same measure for ADWM: ≤ 0.25; for HTQI: ≤ 0.25.

On to GYLR, for which the enrichment ratio is ≤ 0.25. Regarding SWPE, the enrichment ratio was ≤ 0.25. In the case of WIHW, the enrichment ratio is ≤ 0.25. The same measure for KFTE: ≤ 0.25; for QSTC: ≤ 0.25. The figure for EESI is ≤ 0.25; for NQKW it is ≤ 0.25. For FDCQ, the enrichment ratio is ≤ 0.25. Turning to GYKA, the enrichment ratio was ≤ 0.25. As for SFGR, the enrichment ratio was ≤ 0.25. For SRHH, the enrichment ratio was ≤ 0.25.

On to SEPN, for which the enrichment ratio was ≤ 0.25. For WKPF, the enrichment ratio is ≤ 0.25. For FPHP, the enrichment ratio was ≤ 0.25.

As to EAEA, the enrichment ratio is ≤ 0.25. The figure for KTQP is ≤ 0.25. The same measure for YYKE: ≤ 0.25; for TNFL: ≤ 0.25. With TYWV, the enrichment ratio is ≤ 0.25. The figure for ICPF is ≤ 0.25.

GWHS: the enrichment ratio was ≤ 0.25. The same measure for LGMN: ≤ 0.25. Consider FFDF, for which the enrichment ratio was ≤ 0.25.

Turning to WSYA, the enrichment ratio was ≤ 0.25.

Consider NYQK, for which the enrichment ratio was ≤ 0.25. The figure for LHMR is ≤ 0.25.

As to FWGY, the enrichment ratio was ≤ 0.25. The same measure for HEYR: ≤ 0.25; for YSCV: 15.6. The figure for NAPW is ≤ 0.25; for DKNV it is ≤ 0.25; for CPVE it is ≤ 0.25. The figure for AMFP is ≤ 0.25. As for DRII, the enrichment ratio was ≤ 0.25. Regarding FIIF, the enrichment ratio is ≤ 0.25. Consider QCQR, for which the enrichment ratio was ≤ 0.25. DSES: the enrichment ratio is ≤ 0.25. Regarding YENT, the enrichment ratio was ≤ 0.25. The same measure for CTSA: ≤ 0.25. The figure for LDIM is ≤ 0.25; for NKIT it is ≤ 0.25; for TLLK it is ≤ 0.25.

For EVWE, the enrichment ratio was ≤ 0.25. RHIE: the enrichment ratio was ≤ 0.25. The same measure for TSNL: 12.5; for PNPW: ≤ 0.25; for WQRA: ≤ 0.25.

WNTK: the enrichment ratio is ≤ 0.25.

DPLT: the enrichment ratio is ≤ 0.25.

With ENDH, the enrichment ratio is ≤ 0.25. The figure for NLWW is ≤ 0.25; for FQNH it is ≤ 0.25; for HNCM it is ≤ 0.25.

With RNMI, the enrichment ratio was ≤ 0.25.

Turning to NAMH, the enrichment ratio was ≤ 0.25. In the case of HELP, the enrichment ratio is ≤ 0.25. On to KSSL, for which the enrichment ratio was ≤ 0.25. For GCIR, the enrichment ratio is ≤ 0.25. The figure for DSWY is ≤ 0.25; for PYKM it is ≤ 0.25; for SCIW it is ≤ 0.25.

Consider SPRN, for which the enrichment ratio is ≤ 0.25.

As for ANLK, the enrichment ratio was ≤ 0.25.

For the variant MKRY, the enrichment ratio is ≤ 0.25. The figure for ETPC is ≤ 0.25; for KNKY it is ≤ 0.25. The same measure for GRNQ: ≤ 0.25; for GKAD: ≤ 0.25; for RHNG: ≤ 0.25. For the variant VCIY, the enrichment ratio was ≤ 0.25. The same measure for HMYR: ≤ 0.25; for STQF: 7.27; for TMVT: ≤ 0.25. The figure for LFLF is ≤ 0.25; for LMWG it is ≤ 0.25. With RYYW, the enrichment ratio is ≤ 0.25. On to MCVY, for which the enrichment ratio is ≤ 0.25. The figure for YMYL is ≤ 0.25; for LVNT it is ≤ 0.25. The same measure for PHVS: 0.267; for HVPK: ≤ 0.25. With HFAQ, the enrichment ratio is ≤ 0.25. The same measure for VWVS: 0.416; for YIWM: ≤ 0.25. The same measure for RMFL: ≤ 0.25.

KISQ: the enrichment ratio is ≤ 0.25.

On to KSHV, for which the enrichment ratio is ≤ 0.25. For VIGP, the enrichment ratio is ≤ 0.25.

Regarding GGHY, the enrichment ratio was ≤ 0.25. The same measure for ARDL: ≤ 0.25; for IKCY: ≤ 0.25. The figure for KFAC is ≤ 0.25; for NVAN it is ≤ 0.25. In the case of FNCE, the enrichment ratio is ≤ 0.25.

For TIDI, the enrichment ratio was ≤ 0.25. For YACT, the enrichment ratio was 0.253. The figure for HREQ is ≤ 0.25; for VRCW it is ≤ 0.25. On to MCFD, for which the enrichment ratio was ≤ 0.25.

For YCRH, the enrichment ratio is ≤ 0.25.

As to LKFF, the enrichment ratio was ≤ 0.25. Take FLWI: the enrichment ratio was ≤ 0.25.

Regarding EMET, the enrichment ratio was ≤ 0.25.
